From US4133805A, “Cyclic undecapeptides related to somatostatin and intermediates therefor” (American Home Products Corporation, priority 1975, dated 1979)
At least one peptide structure holds a part that was inferred or is arguable (an end, a ring closure or a residue). Where a SMILES comes first, the peptide text is derived from it.

Assays:
insulin = test: Test Procedure II: arginine-stimulated plasma insulin in nembutal-treated rats; type: in vivo, Albino male rats
Description: (§1) Albino male rats are arranged in three groups (nine rats/group) and injected i.p. with nembutal at 50 mg/kg. Fifteen minutes after the nembutal injection they are injected s.c. according to group with (a) test compound, typically 500-2000 μg/kg; (b) SRIF 200 μg/kg; or (c) physiological saline. Ten minutes later 0.5 ml. of arginine (300 mg/ml, pH 7.2) is injected into the heart. The rats are decapitated five minutes after receiving the arginine, and the blood is collected into Trasylol-EDTA. Appropriate aliquots are then assayed for growth hormone, glucagon and insulin. […] Comparisons between control and experimental values are statistically evaluated by the analysis of variants method and statistical significance (p) at 0.05 or lower is used as the index of activity.

growth hormone = test: Test Procedure II: arginine-stimulated plasma growth hormone in nembutal-treated rats; type: in vivo, Albino male rats; settings: p = <0.01
Description: as §1

glucagon = test: Test Procedure II: arginine-stimulated plasma glucagon in nembutal-treated rats; type: in vivo, Albino male rats
Description: as §1

growth hormone (GH) = test: Test Procedure I: plasma growth hormone after sc peptide in Nembutal-treated rats (radioimmunoassay); type: in vivo, Charles River CD nonfasted male rats

## C[C@@H](O)[C@@H]1NC(=O)[C@H](Cc2ccccc2)NC(=O)[C@H]([C@@H](C)O)NC(=O)[C@H](CCCCN)NC(=O)[C@@H](Cc2c[nH]c3ccccc23)NC(=O)[C@H](Cc2ccccc2)NC(=O)[C@H](Cc2ccccc2)NC(=O)[C@H](CC(N)=O)NC(=O)[C@H](CCCCN)NC(=O)CCCCCCNC(=O)[C@H](CO)NC1=O [B, cyclic(7-aminoheptanolyl-L-lysyl-L-asparaginyl-L-phenylalanyl-I-phenylalanyl-D-tryptophyl-L-lysyl-L-threonyl-L-phenylalanyl-L-threonyl-L-seryl)] (HELM PEPTIDE1{[O=C(CCCCCCN[*:1])[*:2]].K.N.F.F.[dW].K.T.F.T.S}$PEPTIDE1,PEPTIDE1,1:R1-11:R2$$$V2.0)
insulin; 200 μg/kg s.c., control 167 ± 12, p = <0.01
  Insulin: 66 ± 6 μ units/ml
insulin; 3.0 mg/kg s.c., control 280 ± 37, p = <0.01
  Insulin: 74 ± 13 μ units/ml
Growth hormone; 2 μg/kg s.c., control 543 ± 86
  GH: 211 ± 18 ng/mL
Growth hormone; 30 μg/kg s.c., control 619 ± 103
  GH: 180 ± 49 ng/mL
Growth hormone; 3.0 mg/kg s.c., control 1009 ± 298
  GH: 92 ± 9 ng/mL
glucagon; 200 μg/kg s.c., control 62 ± 8, p = <0.01
  Glucagon: 21 ± 5 pg/mL
Growth hormone (GH); 0.25 mg/kg sc, 2 Hr., control 159 ± 36, p = >0.05
  plasma GH concentration: 108 ± 18 ng/mL
Growth hormone (GH); 0.25 mg/kg sc, 4 Hr., control 156 ± 43, p = >0.05
  plasma GH concentration: 84 ± 17 ng/mL
Growth hormone (GH); 1 mg/kg sc, 2 Hr., control 233 ± 42, p = <0.001
  plasma GH concentration: 44 ± 12 ng/mL
Growth hormone (GH); 1 mg/kg sc, 4 Hr., control 90 ± 15, p = 0.02
  plasma GH concentration: 46 ± 6 ng/mL
Growth hormone (GH); 2 mg/kg sc, 1 Hr., control 301 ± 73, p = <0.001
  plasma GH concentration: 13 ± 1.7 ng/mL
Growth hormone (GH); 2 mg/kg sc, 2 Hr., control 103 ± 31, p = <0.01
  plasma GH concentration: 15 ± 2.8 ng/mL

## C[C@@H](O)[C@@H]1NC(=O)[C@H](Cc2ccccc2)NC(=O)[C@H]([C@@H](C)O)NC(=O)[C@H](CCCCN)NC(=O)[C@H](Cc2c[nH]c3ccccc23)NC(=O)[C@H](Cc2ccccc2)NC(=O)[C@H](Cc2ccccc2)NC(=O)[C@H](CC(N)=O)NC(=O)[C@H](CCCCN)NC(=O)CCCCCCNC(=O)[C@H](CO)NC1=O [A, cyclic(7-aminoheptanoyl-L-lysyl-L-asparaginyl-L-phenylalanyl-L-phenylalanyl-L-tryptophyl-L-lysyl-L-threonyl-L-phenylalanyl-L-threonyl-L-seryl)] (HELM PEPTIDE1{[O=C(CCCCCCN[*:1])[*:2]].K.N.F.F.W.K.T.F.T.S}$PEPTIDE1,PEPTIDE1,1:R1-11:R2$$$V2.0)
insulin; 0.2 mg/kg s.c., control 151 ± 15, p = <0.05
  Insulin: 152 ± 15 μ units/ml
insulin; 1 mg/kg s.c., control 141 ± 6, p = >0.05
  Insulin: 127 ± 10 μ units/ml
insulin; 3.35 mg/kg s.c., control 181 ± 6, p = <0.05
  Insulin: 157 ± 8 μ units/ml
Growth hormone; 0.2 mg/kg s.c., control 287 ± 53
  GH: 57 ± 12 ng/mL
Growth hormone; 1 mg/kg s.c., control 191 ± 38
  GH: 38 ± 11 ng/mL
Growth hormone; 3.35 mg/kg s.c., control 149 ± 23
  GH: 31 ± 6 ng/mL
glucagon; 0.2 mg/kg s.c., control 20 ± 1, p = <0.05
  Glucagon: 32 ± 5 pg/mL
glucagon; 1 mg/kg s.c., control 96 ± 15, p = ≤0.05
  Glucagon: 57 ± 13 pg/mL
glucagon; 3.35 mg/kg s.c., control 6.4 ± 1.3, p = <0.05
  Glucagon: 3.0 ± 0.7 pg/mL
Growth hormone (GH); 1 mg/kg sc, 1 Hr., control 370 ± 103, p = 0.05
  plasma GH concentration: 95 ± 47 ng/mL
Growth hormone (GH); 1 mg/kg sc, 2 Hr., control 270 ± 90, p = 0.05
  plasma GH concentration: 80 ± 12 ng/mL
